# According to the supplement of paper PMC8728848:
# The list shows a part of the results.
# B1: F17bG (Escherichia coli), Q47200 (protein)
# chain: MTNFYKVFLAVFILVCCNISHAVVSFIGSTENDVGPSQGSYSSTHAMDNLPFVYNTGYNIGYQNANVWRIGGGFCVGLDGKVDLPVVGSLDGQSIYGLTEEVGLLIWMGDTNYSRGTAMSGNSWENVFSGWCVGNYLSTQGLSVHVRPVILKRNSSAQYSVQKTSIGSIRMRPYNGSSAGSVQTTVNFSLNPFTLNDTVTSCRLLTPSAVNVSLAAISAGQLPSSGDEVVAGTTSLKLQCDAGVTVWATLTDATTPSNRSDILTLTGASTATGVGLRIYKNTDSTPLKFGPDSPVKGNENQWQLSTGTETSPSVRLYVKYVNTGEGINPGTVNGISTFTFSYQ
# Key:
# Assay in all cases: glycan array binding signal (z-score within array); higher = stronger binding
# Conditions in all cases: glycan notation: IUPAC condensed, linker removed
# Gal(a1-4)Gal(b1-4)Glc = target: Gal(a1-4)Gal(b1-4)Glc
# Method in brief: (§1)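 Arrays were curated from the Consortium for Functional Glycomics database, 3228 in total, and kept only where the protein sequence was available. Binding is expressed as a within-array Z-score. This score was averaged across arrays of the same protein sequence at different concentrations or buffers and across linkers, and negative values can be read as non-binding.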
# Gal(a1-4)Gal(b1-4)GlcNAc = target: Gal(a1-4)Gal(b1-4)GlcNAc
# Method in brief: as §1
# Gal(a1-4)GlcNAc = target: Gal(a1-4)GlcNAc
# Method in brief: as §1
# Gal(a1-6)Glc = target: Gal(a1-6)Glc
# Method in brief: as §1
# Gal(b1-2)Gal = target: Gal(b1-2)Gal
# Method in brief: as §1
# Gal(b1-3)Gal = target: Gal(b1-3)Gal
# Method in brief: as §1
# Gal(b1-3)GalNAc = target: Gal(b1-3)GalNAc
# Method in brief: as §1
# [1] = target: Gal(b1-3)GalNAc(b1-3)Gal(a1-4)Gal(b1-4)Glc
# Method in brief: as §1
# [2] = target: Gal(b1-3)GalNAc(b1-4)Gal(b1-4)Glc
# Method in brief: as §1
# [3] = target: Gal(b1-3)GalNAc(b1-4)[Neu5Ac(a2-3)]Gal(b1-4)Glc
# Method in brief: as §1
# Gal(b1-3)GlcNAc = target: Gal(b1-3)GlcNAc
# Method in brief: as §1
# [4] = target: Gal(b1-3)GlcNAc(b1-3)Gal(b1-4)Glc
# Method in brief: as §1
# [5] = target: Gal(b1-3)GlcNAc(b1-3)Gal(b1-4)GlcNAc
# Method in brief: as §1
# [6] = target: Gal(b1-3)[Fuc(a1-4)]GlcNAc
# Method in brief: as §1
# [7] = target: Gal(b1-3)[Fuc(a1-4)]GlcNAc(b1-3)Gal(b1-4)GlcNAc
# Method in brief: as §1
# [8] = target: Gal(b1-3)[Fuc(a1-4)]GlcNAc(b1-3)Gal(b1-4)[Fuc(a1-3)]GlcNAc
# Method in brief: as §1
# [9] = target: Gal(b1-3)[GlcNAc(b1-6)]GalNAc
# Method in brief: as §1
# [10] = target: Gal(b1-3)[Neu5Ac(a2-6)]GalNAc
# Method in brief: as §1
# [11] = target: Gal(b1-3)[Neu5Ac(a2-6)]GlcNAc(b1-6)Gal(b1-4)Glc
# Method in brief: as §1
# [12] = target: Gal(b1-3)[Neu5Ac(b2-6)]GalNAc
# Method in brief: as §1
# [13] = target: Gal(b1-4)GalNAc(a1-3)[Fuc(a1-2)]Gal(b1-4)GlcNAc
# Method in brief: as §1
# [14] = target: Gal(b1-4)GalNAc(b1-3)[Fuc(a1-2)]Gal(b1-4)GlcNAc
# Method in brief: as §1
# Gal(b1-4)Glc = target: Gal(b1-4)Glc
# Method in brief: as §1
# Gal(b1-4)Glc6S = target: Gal(b1-4)Glc6S
# Method in brief: as §1
# Gal(b1-4)GlcNAc = target: Gal(b1-4)GlcNAc
# Method in brief: as §1
# [15] = target: Gal(b1-4)GlcNAc(b1-2)Man(a1-3)[Gal(b1-4)GlcNAc(b1-2)Man(a1-6)]Man(b1-4)GlcNAc(b1-4)GlcNAc
# Method in brief: as §1
# [16] = target: Gal(b1-4)GlcNAc(b1-3)Gal(b1-4)Glc
# Method in brief: as §1
# [17] = target: Gal(b1-4)GlcNAc(b1-3)Gal(b1-4)GlcNAc
# Method in brief: as §1
# [18] = target: Gal(b1-4)GlcNAc(b1-3)Gal(b1-4)GlcNAc(b1-3)Gal(b1-4)GlcNAc
# Method in brief: as §1
# [19] = target: Gal(b1-4)GlcNAc(b1-3)Gal(b1-4)[Fuc(a1-3)]GlcNAc(b1-3)Gal(b1-4)[Fuc(a1-3)]GlcNAc
# Method in brief: as §1
# [20] = target: Gal(b1-4)GlcNAc(b1-3)GalNAc
# Method in brief: as §1
# [21] = target: Gal(b1-4)GlcNAc(b1-3)[Gal(b1-4)GlcNAc(b1-6)]GalNAc
# Method in brief: as §1
# [22] = target: Gal(b1-4)GlcNAc(b1-6)Gal(b1-4)GlcNAc(b1-6)GalNAc
# Method in brief: as §1
# [23] = target: Gal(b1-4)GlcNAc(b1-6)GalNAc
# Method in brief: as §1
# [24] = target: Gal(b1-4)GlcNAc(b1-6)[Gal(b1-3)]GalNAc
# Method in brief: as §1
# Gal3S(b1-3)GalNAc = target: Gal3S(b1-3)GalNAc
# Method in brief: as §1
# Gal3S(b1-3)GlcNAc = target: Gal3S(b1-3)GlcNAc
# Method in brief: as §1
# [25] = target: Gal3S(b1-3)[Fuc(a1-4)]GlcNAc
# Method in brief: as §1
# Gal3S(b1-4)Glc = target: Gal3S(b1-4)Glc
# Method in brief: as §1
# Gal3S(b1-4)Glc6S = target: Gal3S(b1-4)Glc6S
# Method in brief: as §1
# Gal3S(b1-4)GlcNAc = target: Gal3S(b1-4)GlcNAc
# Method in brief: as §1
# Gal3S(b1-4)GlcNAc6S = target: Gal3S(b1-4)GlcNAc6S
# Method in brief: as §1
# Gal3S6S(b1-4)GlcNAc = target: Gal3S6S(b1-4)GlcNAc
# Method in brief: as §1
# Gal3S6S(b1-4)GlcNAc6S = target: Gal3S6S(b1-4)GlcNAc6S
# Method in brief: as §1
# Gal4S(b1-4)GlcNAc = target: Gal4S(b1-4)GlcNAc
# Method in brief: as §1
binder,measurement,setting,value
B1,glycan array binding signal (z-score),Gal(a1-4)Gal(b1-4)Glc,0.379
same,glycan array binding signal (z-score),Gal(a1-4)Gal(b1-4)GlcNAc,-0.527
same,glycan array binding signal (z-score),Gal(a1-4)GlcNAc,-0.593
same,glycan array binding signal (z-score),Gal(a1-6)Glc,-0.556
same,glycan array binding signal (z-score),Gal(b1-2)Gal,0.471
same,glycan array binding signal (z-score),Gal(b1-3)Gal,-0.498
same,glycan array binding signal (z-score),Gal(b1-3)GalNAc,-0.394
same,glycan array binding signal (z-score),[1],-0.619
same,glycan array binding signal (z-score),[2],-0.492
same,glycan array binding signal (z-score),[3],0.352
same,glycan array binding signal (z-score),Gal(b1-3)GlcNAc,-0.493
same,glycan array binding signal (z-score),[4],-0.533
same,glycan array binding signal (z-score),[5],-0.652
same,glycan array binding signal (z-score),[6],-0.578
same,glycan array binding signal (z-score),[7],-0.574
same,glycan array binding signal (z-score),[8],-0.582
same,glycan array binding signal (z-score),[9],1.08
same,glycan array binding signal (z-score),[10],-0.345
same,glycan array binding signal (z-score),[11],-0.44
same,glycan array binding signal (z-score),[12],-0.074
same,glycan array binding signal (z-score),[13],-0.608
same,glycan array binding signal (z-score),[14],0.161
same,glycan array binding signal (z-score),Gal(b1-4)Glc,-0.605
same,glycan array binding signal (z-score),Gal(b1-4)Glc6S,-0.036
same,glycan array binding signal (z-score),Gal(b1-4)GlcNAc,-0.375
same,glycan array binding signal (z-score),[15],-0.694
same,glycan array binding signal (z-score),[16],-0.088
same,glycan array binding signal (z-score),[17],0.185
same,glycan array binding signal (z-score),[18],-0.525
same,glycan array binding signal (z-score),[19],-0.475
same,glycan array binding signal (z-score),[20],-0.064
same,glycan array binding signal (z-score),[21],-0.53
same,glycan array binding signal (z-score),[22],-0.543
same,glycan array binding signal (z-score),[23],-0.71
same,glycan array binding signal (z-score),[24],-0.553
same,glycan array binding signal (z-score),Gal3S(b1-3)GalNAc,-0.037
same,glycan array binding signal (z-score),Gal3S(b1-3)GlcNAc,-0.051
same,glycan array binding signal (z-score),[25],0.086
same,glycan array binding signal (z-score),Gal3S(b1-4)Glc,0.202
same,glycan array binding signal (z-score),Gal3S(b1-4)Glc6S,0.563
same,glycan array binding signal (z-score),Gal3S(b1-4)GlcNAc,-0.092
same,glycan array binding signal (z-score),Gal3S(b1-4)GlcNAc6S,1.03
same,glycan array binding signal (z-score),Gal3S6S(b1-4)GlcNAc,0.748
same,glycan array binding signal (z-score),Gal3S6S(b1-4)GlcNAc6S,0.801
same,glycan array binding signal (z-score),Gal4S(b1-4)GlcNAc,-0.267
